Reference: PubChem BioAssay AID1347165 (National Center for Advancing Translational Sciences (NCATS), 2019)
Hit rate of the full screen: of about 220,000 compounds, about 5,700 (2.6%) were called active. This list was built around the results that the source calls inconclusive (neither active nor inactive); the mix of calls is not that of the screen. The call rests on the fitted dose curve; in most records, active means well fitted inhibition curve with a large enough effect; inconclusive means small, poorly fitted or top-dose-only effect; inactive means no such curve, though single readings can be large or run the other way. Potencies of inconclusive entries are doubtful fits and often do not repeat.
Further: nearly all actives have a fitted effect of over 70% in size.
Potency means the concentration at half of the fitted maximal effect; tags describe the fitted curve by direction and shape.
Wherever activity change, negative = inhibition is given: 0% is about no effect.

What follows are compounds tested against Lysine-specific demethylase 5B (Homo sapiens) (UniProt Q9UGL1) (assay: Primary screen for KDM5B Histone Demethylases FDH-coupled qHTS). Conditions: FDH-coupled NADH fluorescence (FDH is formaldehyde dehydrogenase); activity change, negative = inhibition: at 57.7 µM (top of the series) unless noted.
Sequence of UniProt Q9UGL1 (Q9UGL1 whole entry, looked up): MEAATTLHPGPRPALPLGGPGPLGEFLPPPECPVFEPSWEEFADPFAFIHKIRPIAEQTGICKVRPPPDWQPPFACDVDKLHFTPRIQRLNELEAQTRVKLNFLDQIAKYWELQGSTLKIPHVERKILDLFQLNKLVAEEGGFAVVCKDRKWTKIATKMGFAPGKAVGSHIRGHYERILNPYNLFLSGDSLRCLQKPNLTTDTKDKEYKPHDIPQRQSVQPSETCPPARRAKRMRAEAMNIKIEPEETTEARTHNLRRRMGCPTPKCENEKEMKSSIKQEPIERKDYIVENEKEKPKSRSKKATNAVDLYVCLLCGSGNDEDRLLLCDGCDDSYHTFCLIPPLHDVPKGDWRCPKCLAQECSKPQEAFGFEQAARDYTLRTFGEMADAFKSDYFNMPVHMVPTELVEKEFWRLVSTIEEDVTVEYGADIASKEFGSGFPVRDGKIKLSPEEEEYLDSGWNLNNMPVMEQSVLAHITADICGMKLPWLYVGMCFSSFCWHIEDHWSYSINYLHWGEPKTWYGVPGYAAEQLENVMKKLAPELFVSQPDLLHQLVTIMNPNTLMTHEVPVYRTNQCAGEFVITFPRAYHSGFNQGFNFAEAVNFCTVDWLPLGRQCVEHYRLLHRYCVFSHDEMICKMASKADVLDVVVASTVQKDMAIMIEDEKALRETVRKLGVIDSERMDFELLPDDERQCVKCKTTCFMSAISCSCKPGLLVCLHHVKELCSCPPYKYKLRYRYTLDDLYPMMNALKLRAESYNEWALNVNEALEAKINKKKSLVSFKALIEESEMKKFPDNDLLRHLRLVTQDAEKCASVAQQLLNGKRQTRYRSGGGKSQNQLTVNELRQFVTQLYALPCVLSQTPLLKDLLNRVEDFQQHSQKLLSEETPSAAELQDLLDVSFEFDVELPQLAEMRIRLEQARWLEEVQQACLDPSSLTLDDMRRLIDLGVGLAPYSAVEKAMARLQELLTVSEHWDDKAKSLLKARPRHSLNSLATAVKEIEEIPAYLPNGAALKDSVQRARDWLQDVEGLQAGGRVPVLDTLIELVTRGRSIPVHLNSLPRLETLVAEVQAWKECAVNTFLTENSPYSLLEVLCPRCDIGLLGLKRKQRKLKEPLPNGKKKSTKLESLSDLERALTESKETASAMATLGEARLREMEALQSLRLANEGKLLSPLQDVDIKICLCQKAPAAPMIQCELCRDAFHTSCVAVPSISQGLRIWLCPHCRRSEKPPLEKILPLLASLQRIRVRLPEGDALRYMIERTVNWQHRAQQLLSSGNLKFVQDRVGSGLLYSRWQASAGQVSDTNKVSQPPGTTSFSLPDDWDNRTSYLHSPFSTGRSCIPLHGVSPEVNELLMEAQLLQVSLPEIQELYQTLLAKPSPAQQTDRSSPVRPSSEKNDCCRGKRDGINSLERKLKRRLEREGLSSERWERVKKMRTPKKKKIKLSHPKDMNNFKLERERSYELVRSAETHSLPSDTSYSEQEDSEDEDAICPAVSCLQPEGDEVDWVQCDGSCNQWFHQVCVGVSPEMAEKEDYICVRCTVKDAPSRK
Source text: Assay Submitter (PI): Qin Yan, Ph.D. (Yale University) and Xiaodong Cheng, Ph.D. (MD Anderson) This project was funded as part of the NCI NEXT Program and Chemical Biology Consortium (CBC) The histone demethylases, KDM5A and KDM5B catalyze the demethylation of lysine 4 on histone H3 (H3K4me3/2). They are overexpressed in a variety of cancers and have been implicated in cancer cell growth, metastasis, drug resistance, and tumor growth. KDM5A is amplified and overexpressed in breast and gastric cancer; and is translocated in leukemia. While KDM5B is highly expressed in human mammary tumors and breast cancer cell lines, but not in normal adult breast tissue. Moreover, knockdown of KDM5B leads to upregulation of tumor suppressor genes, including BRCA1. The goal of this project is to employ qHTS to identify selective small molecule inhibitors of KDM5A/B demethylase activity to better understand the role of KDM5 in cancer and to develop novel therapies. We employed an FDH-coupled assay previously reported by Sakurai et al. to monitor in vitro KDM5 demethylase activity. Compounds showing dose response inhibition are re-acquired, validated, and tested for non-specific interference with the formaldehyde dehydrogenase (FDH) counterscreen. True inhibitors are validated using an AlphaLisa secondary screen, which employs an H3K4(me2-1)-specific antibody to monitor demethylation of a biotin-tagged H3K4(me3) peptide substrate. Inhibitors are profiled against KDM4A and KDM6A AlphaLisa counterscreens to determine level of demethylase specificity; and against the TruHits counterscreen to eliminate non-specific inhibitory activity on the AlphaLISA detection method. Selective inhibitors identified from the primary and secondary screening are tested in cells using immunofluorescence to monitor global H3K4 tri-methylation as a measure of KDM5A/B inhibition. Early Translation Branch (ETB) National Center for Advancing Translational Sciences (NCATS), Rockville, MD National Institute of Health (NIH), Bethesda, Maryland [1] Sakurai, M et al. A miniaturized screen for inhibitors of Jumonji histone demethylases. Mol Biosyst. 2010 Feb;6(2):357-64. doi: 10.1039/b912993f. Epub 2009 Oct 8.
Materials: 1536-well Black, solid bottom, medium binding assay plate is purchased from Greiner Bio-one. The enzymes (KDM5B) and substrate (H3K4me3/2) are provided by the principal investigators. The buffer for this assay is composed of 50mM HEPES at pH 7.5 with 0.01% Tween-20. FDH coupled Demethylase qHTS protocol: Three microliter enzyme mix (buffer + 200nM KDM5BDeltaAP final concentration) is dispensed into the assay plate using the BioRAPTR Flying Reagent Dispenser (FRD; […]). Compound (at various final concentration) and control solution is pin transferred to the assay plate using the Kalypsys 1536-pin tool apparatus. The assay plate is incubated for 10 min at room temperature followed by addition of 1uL substrate mix (buffer + 100uM ascorbic acid, 50uM ferrous ammonium sulfate, 12.5uM H3K4Me3, 25uM a-ketoglutarate, 0.25 mM NAD+, 0.25 U/mL formaldehyde dehydrogenase using the FRD yielding a total reaction volume of 4 uL. Initial fluorescence (Read1) is detected using the PerkinElmer ViewLux plate reader equipped with 340 nm excitation and 450 nm emission filters. The final fluorescence (Read2) signal is obtained after 30 min of room temperature incubation. Delta RFU is calculated (Read2 - Read1) and is used to generated dose response curves.
`CN1C(=O)CCCCC1C(=O)NC1CCCC1` (configuration not stated) was tested, and the “activity change, negative = inhibition” value was inactive: -12%. For `Cc1cc(C)c2c(C)c(C(=O)Nc3nonc3-c3cccs3)oc2c1`, the “activity change, negative = inhibition” value was inactive: 9.89%. With `COc1ccc(OC)c(NC(=O)CSc2nc3c(c(=O)n2C)SCC3)c1` the “activity change, negative = inhibition” value was inactive: 17.8%. In the case of `COc1cccc(N2CCN(C(C(=O)O)c3c[nH]c4cc(NC(=O)CCC(=O)O)ccc34)CC2)c1` (configuration not stated), the Potency is reported as inconclusive: 25.1 µM [inhibitor, single point]. For `CC(C)(C)c1ccc(C(=O)N2CCCC(O)(CN3CCCC3)C2)cc1` (configuration not stated), the Potency was inconclusive: 4.47 µM [inhibitor, full curve]. `CN(C)c1oc(-c2ccccc2)nc1S(=O)(=O)c1ccc2c(c1)OCCO2` was tested, and the Potency was inconclusive: 22.4 µM [inhibitor, partial curve, poor fit]. In the case of `COc1ccc(OC)c(S(=O)(=O)N2CC=C(c3c(C)n(CC(=O)N4CCCC4)c4ccccc34)CC2)c1`, the Potency is reported as inconclusive: 28.2 µM [inhibitor, single point]. With `CN1c2cc(C(=O)Nc3ccccc3)ccc2C(=O)N2CCCCC21` (configuration not stated) the Potency was inconclusive: 20 µM [inhibitor, partial curve, poor fit]. `O=C(COc1ccccc1)N1CCC(N2CC3CC(C2)[C@H]2CCCC(=O)N2C3)CC1` (some centres not stated) was tested, and the Potency was active: 22.4 µM. With `Cc1cccc(-n2nc(-c3c(C)nc4scc(CC(=O)N5CCOCC5)n4c3=O)cc2C)c1` the Potency was active: 28.2 µM. In the case of `CN(C)c1ccc(CNC(=O)CCCn2ccc3cc(S(=O)(=O)N4CCCC4)ccc32)cc1`, the Potency is reported as inconclusive: 31.6 µM [inhibitor, single point]. `CC(C)C(=O)NNC(=O)c1csc(CS(=O)(=O)c2ccc(Cl)cc2)n1` was tested, and the Potency was inconclusive: 31.6 µM [inhibitor, single point]. In the case of `CCNC(=O)CCc1c(C)nn(-c2cccc(C)c2)c1Oc1ccccc1C`, the Potency is reported as inconclusive: 39.8 µM [inhibitor, single point]. With `N#Cc1cccnc1NCCC12CC3CC(CC(C3)C1)C2` the Potency was inconclusive: 22.4 µM [inhibitor, partial curve, poor fit]. For `CC(=O)N1CCc2cc(Br)cc(S(=O)(=O)N3CCN(c4cccc(C)c4)C(C)C3)c21` (configuration not stated), the Potency was inconclusive: 1.78 µM [inhibitor, full curve, poor fit]. `COc1ccc(N2CCN(C(=O)CS(=O)(=O)c3cccc4nsnc34)CC2)cc1` was tested, and the Potency was inconclusive: 1.78 µM [inhibitor, full curve, poor fit]. `CCCCN1CCc2nc(N3CCN(C)CC3)ncc2C1` was tested, and the Potency was inconclusive: 22.4 µM [inhibitor, single point]. `O=C(NCCc1csc(-c2cccnc2)n1)c1ccc(F)c(F)c1` was tested, and the Potency was inconclusive: 3.55 µM [inhibitor, partial curve, poor fit]. For `c1cncc(COc2cc3c(cn2)NCCN(Cc2ccc4[nH]ccc4c2)C3)c1`, the Potency was inconclusive: 39.8 µM [inhibitor, partial curve, poor fit]. For `N#C/C(=C\c1c(Oc2ccc(Br)cc2)nc2ccccn2c1=O)c1nc2ccccc2s1`, the Potency was inconclusive: 11.2 µM [inhibitor, partial curve, poor fit]. For `CCC1Oc2ccc(NC(=O)Cc3ccccc3)cc2CN(Cc2cccc(OC)c2)C1=O` (configuration not stated), the Potency was inconclusive: 28.2 µM [inhibitor, partial curve, poor fit]. `Cc1csc(NC(=O)c2ccc3c(c2)OCCN(CCC(F)(F)F)C3)n1` was tested, and the Potency was active: 35.5 µM. In the case of `O=C(c1ccccc1)N1CCCC(c2nc(C3CCOCC3)no2)C1` (configuration not stated), the “activity change, negative = inhibition” value is reported as inactive: 20.3%. `COc1ccc(C(=O)N2CCN(c3oc(-c4cccs4)nc3C#N)CC2)cc1` was tested, and the Potency was inconclusive: 1.78 µM [inhibitor, full curve, poor fit]. In the case of `CCCc1cc(C(=O)N2CCC3(CC2)CN(C(C)CCC)C(=O)O3)n[nH]1` (configuration not stated), the Potency is reported as active: 28.2 µM. For `Oc1ccc(NCc2ccc(OCc3ccccc3Cl)cc2)cc1`, the Potency was inconclusive: 6.31 µM [inhibitor, partial curve, poor fit]. In the case of `CCN1c2cc(C(=O)Nc3ccc(OC)c(OC)c3)ccc2C(=O)N2CCCC21` (configuration not stated), the Potency is reported as inconclusive: 11.2 µM [inhibitor, partial curve, poor fit]. For `Cc1ccc(Cc2nc3ccccc3nc2SCC(=O)N2CCCCC2C)cc1` (configuration not stated), the Potency was inconclusive: 15.8 µM [inhibitor, partial curve, poor fit]. For `COc1cccc(N2C(=O)NC(=NC3CCCC3)C23CCCN(Cc2ccsc2)C3)c1` (configuration not stated), the “activity change, negative = inhibition” value was inactive: 7.82% [at 115 µM]. With `Cc1ccc(-c2ccc(N)nc2)c2cccnc12` the Potency was active: 25.1 µM. For `N#C/C(=C/c1cccc2c1OCCCO2)c1nc2ccccc2[nH]1`, the Potency was inconclusive: 25.1 µM [inhibitor, partial curve, poor fit]. With `O=C1CO[C@H]2CCN(Cc3ccccn3)CC[C@@H]2N1CCc1cccnc1` the Potency was inconclusive: 25.1 µM [inhibitor, partial curve].
